# Reference: PubChem BioAssay AID463173 (ICCB-Longwood Screening Facility, Harvard Medical School, 2010)
# In all, about 52,000 compounds went through this assay and about 1,700 (3.3%) were called active. No stated cut-off is given here; in the data, active means survival mostly below about 52% (no sharp cut-off); inactive means mostly above about 56%. Some of the results follow.
# Test system: Wild type
# Assay: S. aureus survival, RN4220 and DeltatarO strains – OD600, teichoic acid synthesis inhibitors, primary screen (AID 463173)
# Conditions: S. aureus RN4220 wild type/DeltatarO growth, OD600, 18 h, hits give low values, screened at 18.75 µg/mL (by protocol)
row,SMILES,survival
1,Cc1ccc(NC(=O)c2cc(S(=O)(=O)N3CCCC3)c[nH]2)c(C)c1,inactive: 113%
2,Cc1cccc(N2CCN(C(=O)c3ccc4c(c3)c(C)c(C)n4C)CC2C)c1 (configuration not stated),inactive: 126%
3,COc1ccccc1N1CCN(c2cc(C)nc3nc(-c4ccc(Cl)cc4)nn23)CC1,inactive: 78%
4,CC1CCN(S(=O)(=O)c2nnc(NC(=O)c3cccc(F)c3)s2)CC1,inactive: 43%
5,COC(=O)c1sc2cccc(F)c2c1S(=O)(=O)N1CCN(c2ccc(C)cc2C)CC1,inactive: 66%
6,CCOC(=O)c1c(NC(=O)COc2ccc(Cl)cc2C)sc(C(C)=O)c1C,inactive: 77%
7,CCN1CCN(c2cc(C)c3cc(NC(=O)c4ccccc4F)ccc3n2)CC1,inactive: 68%
8,CC(=O)N1CCc2cc(Br)cc(S(=O)(=O)CCC(=O)Nc3ccc(C)cc3Cl)c21,inactive: 65%
9,CCOc1ccc2oc(=O)cc(CN3CCN(c4ccc(Cl)cc4)CC3)c2c1,inactive: 111%
10,CCc1c(C)c2ccc(O)c(CN3CCN(c4ccccc4)CC3)c2oc1=O,inactive: 84%
11,Cc1c(C(=O)N(Cc2ccc(N(C)C)cc2)CC2CCCO2)oc2ccc(Br)cc12 (configuration not stated),inactive: 81%
12,O=c1[nH]cnc2scc(-c3ccsc3)c12,inactive: 103%
13,CCc1cccc(C)c1NC(=O)CN(C)S(=O)(=O)c1cccc2nsnc12,inactive: 79%
14,Cc1ccc(N2CCN(c3nc4c(S(=O)(=O)c5ccc(C)c(C)c5)nnn4c4ccccc34)CC2)c(C)c1,inactive: 84%
15,COc1ccc(C)cc1NC(=O)N1CCC(CN2CCC(C)CC2)CC1,inactive: 77%
16,CC(C)(C)C(=O)NC(Cc1c[nH]c2ccccc12)C(=O)O (configuration not stated),inactive: 111%
17,Cc1ccc(S(=O)(=O)c2cn(C)c3cc(N4CCCCC4)c(F)cc3c2=O)cc1,inactive: 74%
18,CNC(=O)C1CCC(Cn2c(=O)c3sccc3n(CC(=O)NCc3cccc(OC)c3)c2=O)CC1 (configuration not stated),inactive: 89%
19,Cc1cccc(-c2nc3scc(CCNC(=O)c4ccc(Br)o4)n3n2)c1,inactive: 74%
20,CCC(CC)C(=O)Nc1ccc(-c2cn3cccnc3n2)cc1,inactive: 89%
21,Cc1cc(C)cc(Nc2cc(C)nc3nncn23)c1,inactive: 81%
22,CCOC(=O)N1CCN(c2ncc3c(n2)CC(c2ccccc2O)CC3=O)CC1 (configuration not stated),inactive: 76%
23,COc1ccc(/C=C\c2onc(C)c2S(=O)(=O)N2CCC(C(=O)Nc3cccc(Cl)c3)CC2)cc1,inactive: 77%

row,SMILES,survival
1,COc1ccccc1NC(=O)CSc1nnc2c3ccccc3n(C(C)C)c2n1,inactive: 70%
2,COc1ccc(CCNC(=O)CCc2c(C)nc3cc(-c4ccccc4OC)nn3c2C)c(OC)c1,inactive: 79%
3,COc1ccc(CNC(=O)CN2C(=O)COc3ccc(S(=O)(=O)NC4CCCC4)cc32)cc1,inactive: 95%
4,N#CCSc1ncccc1-c1nc2ccccc2[nH]1,inactive: 108%
5,Cc1ccc(Nc2nnc(-c3cc4c(ccc5ccccc54)oc3=O)s2)cc1,inactive: 136%
6,COc1cccc(C(=O)N2CCc3c([nH]c4ccccc34)C2c2ccc(SC)cc2)c1 (configuration not stated),inactive: 146%
7,CC(=O)n1cc(C2C(=O)CC(C)(C)CC2=O)c2ccccc21,inactive: 115%
8,C/C(N)=C\C(=O)Nc1ccccc1,inactive: 106%
9,COc1cccc(CNC(=O)CCCN2C(=O)CCn3nc(-c4cccn4C)cc32)c1,inactive: 71%
10,COc1cc(S(=O)(=O)N2CCN(c3ccccc3F)CC2)c(OC)cc1Cl,inactive: 94%
11,CCc1oc(C(=O)O)cc1CN,inactive: 82%
12,CCn1c(=O)c2cc(C(=O)N(CC(C)C)CC(C)C)sc2c2ccccc21,active: -1%
13,CCOc1ccc(CCNC(=O)c2csc3c2CCCCC3)cc1,inactive: 81%
14,CCOC(=O)c1cccc(NC(=O)Cn2c(=O)nc(-c3ccccc3F)c3cc(Cl)ccc32)c1,inactive: 71%
15,Cc1nnc(N(C)C(=O)c2ccc3c(c2)OCO3)s1,inactive: 98%
16,Cc1ccc(CNc2ncnc3c2nc2n3CCCC2)cc1,inactive: 69%
17,CCOC(=O)c1cc(-c2ccccc2)n(CCC(=O)NC2CCCCC2)c1C,inactive: 88%
18,Cc1ccc2nc(CSc3nnc(NC(=O)c4cccc(Br)c4)s3)cc(=O)n2c1,inactive: 71%
19,CCOC(=O)c1ccc(NC(=O)CN2c3ccccc3S(=O)(=O)c3ccccc32)cc1,inactive: 121%
20,CCN(C(=O)CSc1nc2ccccc2n1CC(=O)NCc1ccc(OC)cc1)c1ccccc1,inactive: 80%
21,O=C(O)c1cccn2c(=O)c3ccccc3nc12,inactive: 114%
22,COc1ccc(NC(=O)CC2C(=O)N(c3ccc(F)cc3)C(=O)N2Cc2ccc3c(c2)OCO3)cc1 (configuration not stated),inactive: 81%
23,COc1ccc(-c2c(C)nn3c(N4CCN(c5ccccc5)CC4)cc(C)nc23)cc1OC,inactive: 82%

row,SMILES,survival
1,COc1ccc(/C=C(/C#N)c2nc(-c3ccc(-c4ccccc4)cc3)cs2)cc1OC,inactive: 128%
2,CCCn1c(=N)c(C(=O)NC2CCCC2)cc2c(=O)n3cccc(C)c3nc21,inactive: 68%
3,Cc1noc(C)c1S(=O)(=O)Nc1ccc(C(=O)Nc2ccc(Br)cc2)cc1,inactive: 59%
4,CCc1cccc(C)c1NC(=O)c1cc(S(=O)(=O)N2CCOCC2)cn1C,inactive: 95%
5,CCOC(=O)c1ccccc1NC(=O)n1ncc2cc(Cl)ccc21,inactive: 85%
6,COc1cc(NC(=O)CCn2cnc3ccccc3c2=O)cc(OC)c1,inactive: 124%
7,CCOc1cccc(C(=O)Nc2ccc3oc(-c4cccnc4)nc3c2)c1,inactive: 75%
8,N#CC(C#N)=CC1=C(N2CCCC2)CCCC1,inactive: 93%
9,CCCCSCCCNC(=O)c1cn(CC)c2ccc(S(=O)(=O)N3CCCCCC3)cc2c1=O,inactive: 76%
10,COc1ccc(OCCn2c(C)nc3cc(C)c(C)cc32)cc1,inactive: 78%
11,CCCCOc1ccc(CNC(=O)c2cc3n(n2)CCCN(Cc2ccc(C)cc2)C3=O)cc1,inactive: 63%
12,CCCOc1ccc(C(=O)Nc2cc(-c3nc4cc(C)cc(C)c4o3)ccc2C)cc1,inactive: 64%
13,Cc1cnn(Cc2ccccc2)c1N,inactive: 108%
14,CN1C(=O)c2ccccc2Sc2ccc(NC(=O)N3CCN(c4ccccc4F)CC3)cc21,inactive: 83%
15,Clc1ccc(CCNC(c2nnc(-c3ccccc3)o2)c2ccccc2Cl)cc1 (configuration not stated),active: 3%
16,CC(C)NC(=O)C1CCN(C(=O)N2CCOc3ccc(Cl)cc32)CC1,inactive: 82%
17,Cc1ccc(-c2noc(-c3ccc(N4CCCCC4)c([N+](=O)[O-])c3)n2)cc1,inactive: 82%
18,CNC(=O)COc1ccc(NC(=O)c2ccc(-c3nn(C)c(=O)c4ccccc34)cc2)cc1,inactive: 70%
19,CCn1c(SCc2ccccc2Cl)nc(=O)c2c(C(=O)OC)cc(C3CC3)nc21,inactive: 73%
20,CC1(C)Cc2ccccc2-c2nnc(SCC(=O)N3CCCCC3)n21,inactive: 102%
21,COc1cc(-c2noc(-c3cc(C(C)C)[nH]n3)n2)cc(OC)c1OC,inactive: 72%
22,Cc1cc(C)c2c(-n3cccc3)c(C(=O)NCCCN3CCCCC3C)sc2n1 (configuration not stated),inactive: 92%
23,Cc1nn(S(=O)(=O)c2ccc(Cl)cc2)c(C)c1S(=O)(=O)N1CCCCCC1,inactive: 63%

row,SMILES,survival
1,CC(=O)Nc1nonc1-c1nnc(SCc2ccc(Cl)cc2)n1C,inactive: 76%
2,CCOC(=O)c1c(NC(=O)c2cc(=O)c3c(C)cc(C)cc3o2)sc(C(C)=O)c1C,inactive: 88%
3,CCc1ccc(-n2c(-c3ccccc3)c(C)n3c4c(=O)n(C)c(=O)n(C)c4nc23)cc1,inactive: 126%
4,Oc1ccccc1C1=Nc2ccccc2N=C(c2ccco2)C1,inactive: 111%
5,COc1cccc(N2C(=O)N(CC(=O)NCc3cccc(OC)c3OC)c3ccccc3S2(=O)=O)c1,inactive: 78%
6,Cc1cc(=O)c2cc(C(=O)Nc3ccccc3)ccc2[nH]1,inactive: 82%
7,Cc1ccc2cccc(NC(=O)c3ccc(-c4ccc(Br)cc4)o3)c2n1,inactive: 68%
8,COc1cccc(C2C(C(=O)Nc3ccccc3OC)=C(C)Nc3nc4ccccc4n32)c1 (configuration not stated),inactive: 93%
9,CCc1ccccc1Nc1ncnc2c1nc1n2CCCC1,inactive: 71%
10,NS(=O)(=O)c1ccc(CCNC(=O)c2nc(SCc3ccccc3F)ncc2Cl)cc1,inactive: 83%
11,COc1ccc2oc(=O)c(C(=O)NCCc3c(C)[nH]c4ccc(Br)cc34)cc2c1,inactive: 70%
12,O=C(CSc1nnc(CNC(=O)c2ccccc2)n1-c1cccc(Cl)c1)Nc1ccccc1F,inactive: 98%
13,OC(CC#CCN1CCOCC1)(c1ccccc1)c1ccccc1,inactive: 105%
14,COc1ccccc1N1CCN(C(=O)CCS(=O)(=O)c2cc(Br)cc3c2N(C(=O)C2CC2)CC3)CC1,inactive: 84%
15,CCOC(=O)c1c(C)oc2nc(C)nc(N3CCN(c4ccccc4)CC3)c12,inactive: 68%
16,O=C(Nc1ccc(F)cc1)c1cccn1-c1nnc(N2CCCCC2)s1,inactive: 80%
17,Cc1ccc(-c2csc(/C(C#N)=C/c3ccccc3Cl)n2)cc1,inactive: 23%
18,CCCNC(=O)c1cnc2sc(N3CCCCC3)nn2c1=O,inactive: 73%
19,NNC(=O)C(NC(=O)c1ccccc1)c1n[nH]c(=O)c2ccccc12 (configuration not stated),inactive: 106%
20,Cc1cn2c(=O)cc(COc3ccccc3NC(=O)c3ccccc3C)nc2s1,inactive: 82%
21,O=C1/C(=C\c2cccnc2)SC(=S)N1C1CCS(=O)(=O)C1 (configuration not stated),inactive: 105%
22,O=C(NCc1cccc(F)c1)C1CCN(C(=O)c2sccc2-n2cccc2)CC1,inactive: 126%
23,O=C(Nc1cc(NC(=O)c2ccccc2Cl)ccc1Cl)c1ccccc1,inactive: 71%
